Results are given in words; binding and its absence hold for the method and conditions named. For some assays here: In cells and extracts the contact can be indirect. Some entries that bind do so weakly or less than the wild type. For some assays here: Tags and fused reporters may be left off the sequences shown.

In assay [1] the target is HA-NEU1 (neuraminidase 1) (UniProt Q99519). Briefly: co-IP; HEK293T cells transfected with HA-NEU1 and Flag-tagged receptor plasmids; lysis in 25 mM Tris-HCl pH 7.4, 150 mM NaCl, 1% NP-40, 1 mM EDTA, 5% glycerol; Flag-tag or HA-tag antibody on Protein A/G magnetic beads; western blot.
For assay [2], the target named is Human NEU1 recombinant protein (human) (UniProt Q99519). The experiment in a line: SPR; Biacore T200, 25 °C, HBS-EP+ pH 7.4; human NEU1 amine-coupled to CM5 chip (8000–10,000 RU); ALK5 recombinant proteins flowed at 7.80–500 nM; 1:1 binding model; both purified.
Assay [3] addresses neuraminidase 1 (NEU1), endogenous (human (endogenous in HK-2 and in human kidney biopsies)) (UniProt Q99519). Briefly: proximity ligation; in situ PLA (Duolink) of NEU1 and ALK5 in fixed HK-2 cells transfected with the ALK5_(160-200aa) plasmid; also cells treated with salvianolic acid B (Supplementary Fig. 10b).
Assay [4] deals with HA-NEU1 (neuraminidase 1) (UniProt Q99519). Briefly: co-IP; co-IP of NEU1 and ALK5 in HEK293T cells transfected with the ALK5_(160-200aa) plasmid as competitor.
For assay [5], the target named is neuraminidase 1 (NEU1), endogenous (human (endogenous in HK-2 and in human kidney biopsies)) (UniProt Q99519). The experiment in a line: proximity ligation; in situ PLA (Duolink) on paraffin sections of fibrotic human kidney biopsies, anti-NEU1 and anti-ALK5 antibodies.
For assay [6] the target is unchanged. Briefly: co-IP; HK-2 cells, endogenous proteins, NEU1 or ALK5 antibody on Protein A/G magnetic beads; with or without TGFβ (10 ng/ml, 24 h); also lysate treated with lambda protein phosphatase (Fig. 7i) and cells treated with salvianolic acid B (Supplementary Fig. 10a).
The target of assay [7] is NEU1-VC155 (UniProt Q99519). The experiment in a line: split reporter; BiFC in HK-2 cells co-transfected with pBiFC-NEU1-VC155 and pBiFC-ALK5-VN173, with or without TGFβ (10 ng/ml, 24 h); confocal microscopy.

B1: Flag-AMHR2 (receptor, UniProt Q16671 18-573)
chain: PPNRRTCVFFEAPGVRGSTKTLGELLDTGTELPRAIRCLYSRCCFGIWNLTQDRAQVEMQGCRDSDEPGCESLHCDPSPRAHPSPGSTLFTCSCGTDFCNANYSHLPPPGSPGTPGSQGPQAAPGESIWMALVLLGLFLLLLLLLGSIILALLQRKNYRVRGEPVPEPRPDSGRDWSVELQELPELCFSQVIREGGHAVVWAGQLQGKLVAIKAFPPRSVAQFQAERALYELPGLQHDHIVRFITASRGGPGRLLSGPLLVLELHPKGSLCHYLTQYTSDWGSSLRMALSLAQGLAFLHEERWQNGQYKPGIAHRDLSSQNVLIREDGSCAIGDLGLALVLPGLTQPPAWTPTQPQGPAAIMEAGTQRYMAPELLDKTLDLQDWGMALRRADIYSLALLLWEILSRCPDLRPDSSPPPFQLAYEAELGNTPTSDELWALAVQERRRPYIPSTWRCFATDPDGLRELLEDCWDADPEARLTAECVQQRLAALAHPQESHPFPESCPRGCPPLCPEDCTSIPAPTILPCRPQRSACHFSVQQGPCSRNPQPACTLSPV
Consider B1, for which, in assay [1], the binding result is recorded as “no binding”.

B2: human ALK5_(200-503aa) recombinant protein (domain or fragment, UniProt P36897 200-503)
chain: TIARTIVLQESIGKGRFGEVWRGKWRGEEVAVKIFSSREERSWFREAEIYQTVMLRHENILGFIAADNKDNGTWTQLWLVSDYHEHGSLFDYLNRYTVTVEGMIKLALSTASGLAHLHMEIVGTQGKPAIAHRDLKSKNILVKKNGTCCIADLGLAVRHDSATDTIDIAPNHRVGTKRYMAPEVLDDSINMKHFESFKRADIYAMGLVFWEIARRCSIGGIHEDYQLPYYDLVPSDPSVEEMRKVVCEQKLRPNIPNRWQSCEALRVMAKIMRECWYANGAARLTALRIKKTLSQLSQQEGIKM
For the molecule B2, in assay [2], the binding entry is “no binding (tested: 500 nM)”.

B3: human ALK5_(1-125aa) recombinant protein (domain or fragment, UniProt P36897 34-125)
chain: LQCFCHLCTKDNFTCVTDGLCFVSVTETTDKVIHNSMCIAEIDLIPRDRPFVCAPSSKTGSVTTTYCCNQDHCNKIELPTTVKSSPGLGPVE
With B3, the binding result in assay [2] is listed as “no binding (tested: 500 nM)”.

B4: Flag-ALK4 (receptor, UniProt P36896 24-505)
chain: SGPRGVQALLCACTSCLQANYTCETDGACMVSIFNLDGMEHHVRTCIPKVELVPAGKPFYCLSSEDLRNTHCCYTDYCNRIDLRVPSGHLKEPEHPSMWGPVELVGIIAGPVFLLFLIIIIVFLVINYHQRVYHNRQRLDMEDPSCEMCLSKDKTLQDLVYDLSTSGSGSGLPLFVQRTVARTIVLQEIIGKGRFGEVWRGRWRGGDVAVKIFSSREERSWFREAEIYQTVMLRHENILGFIAADNKDNGTWTQLWLVSDYHEHGSLFDYLNRYTVTIEGMIKLALSAASGLAHLHMEIVGTQGKPGIAHRDLKSKNILVKKNGMCAIADLGLAVRHDAVTDTIDIAPNQRVGTKRYMAPEVLDETINMKHFDSFKCADIYALGLVYWEIARRCNSGGVHEEYQLPYYDLVPSDPSIEEMRKVVCDQKLRPNIPNWWQSYEALRVMGKMMRECWYANGAARLTALRIKKTLSQLSVQEDVKI
As to B4, in assay [1], the binding result is “binds”.

B5: Flag-ALK5_(160-200aa) (domain or fragment, UniProt P36897 160-200)
chain: NEEDPSLDRPFISEGTTLKDLIYDMTTSGSGSGLPLLVQRT
For the molecule B5, the binding result in assay [3] and in assay [1] was “binds” in each case.

B6: Flag-ALK2 (receptor, UniProt Q04771 21-509)
chain: MEDEKPKVNPKLYMCVCEGLSCGNEDHCEGQQCFSSLSINDGFHVYQKGCFQVYEQGKMTCKTPPSPGQAVECCQGDWCNRNITAQLPTKGKSFPGTQNFHLEVGLIILSVVFAVCLLACLLGVALRKFKRRNQERLNPRDVEYGTIEGLITTNVGDSTLADLLDHSCTSGSGSGLPFLVQRTVARQITLLECVGKGRYGEVWRGSWQGENVAVKIFSSRDEKSWFRETELYNTVMLRHENILGFIASDMTSRHSSTQLWLITHYHEMGSLYDYLQLTTLDTVSCLRIVLSIASGLAHLHIEIFGTQGKPAIAHRDLKSKNILVKKNGQCCIADLGLAVMHSQSTNQLDVGNNPRVGTKRYMAPEVLDETIQVDCFDSYKRVDIWAFGLVLWEVARRMVSNGIVEDYKPPFYDVVPNDPSFEDMRKVVCVDQQRPNIPNRWFSDPTLTSLAKLMKECWYQNPSARLTALRIKKTLTKIDNSLDKLKTDC
As for B6, the binding entry in assay [1] was “no binding”.

B7: Flag-ALK5 (TGFβ type I receptor ALK5) (receptor, UniProt P36897 34-503)
chain: LQCFCHLCTKDNFTCVTDGLCFVSVTETTDKVIHNSMCIAEIDLIPRDRPFVCAPSSKTGSVTTTYCCNQDHCNKIELPTTVKSSPGLGPVELAAVIAGPVCFVCISLMLMVYICHNRTVIHHRVPNEEDPSLDRPFISEGTTLKDLIYDMTTSGSGSGLPLLVQRTIARTIVLQESIGKGRFGEVWRGKWRGEEVAVKIFSSREERSWFREAEIYQTVMLRHENILGFIAADNKDNGTWTQLWLVSDYHEHGSLFDYLNRYTVTVEGMIKLALSTASGLAHLHMEIVGTQGKPAIAHRDLKSKNILVKKNGTCCIADLGLAVRHDSATDTIDIAPNHRVGTKRYMAPEVLDDSINMKHFESFKRADIYAMGLVFWEIARRCSIGGIHEDYQLPYYDLVPSDPSVEEMRKVVCEQKLRPNIPNRWQSCEALRVMAKIMRECWYANGAARLTALRIKKTLSQLSQQEGIKM
Regarding B7, the binding result in assay [4] and in assay [1] was “binds” in each case.

B8: TGFβ type I receptor ALK5, endogenous (receptor, UniProt P36897 34-503)
chain: LQCFCHLCTKDNFTCVTDGLCFVSVTETTDKVIHNSMCIAEIDLIPRDRPFVCAPSSKTGSVTTTYCCNQDHCNKIELPTTVKSSPGLGPVELAAVIAGPVCFVCISLMLMVYICHNRTVIHHRVPNEEDPSLDRPFISEGTTLKDLIYDMTTSGSGSGLPLLVQRTIARTIVLQESIGKGRFGEVWRGKWRGEEVAVKIFSSREERSWFREAEIYQTVMLRHENILGFIAADNKDNGTWTQLWLVSDYHEHGSLFDYLNRYTVTVEGMIKLALSTASGLAHLHMEIVGTQGKPAIAHRDLKSKNILVKKNGTCCIADLGLAVRHDSATDTIDIAPNHRVGTKRYMAPEVLDDSINMKHFESFKRADIYAMGLVFWEIARRCSIGGIHEDYQLPYYDLVPSDPSVEEMRKVVCEQKLRPNIPNRWQSCEALRVMAKIMRECWYANGAARLTALRIKKTLSQLSQQEGIKM
Take B8: the binding entry in assay [5], in assay [3] and in assay [6] was “binds” each time.

B9: ALK5-VN173 (receptor, UniProt P36897 34-503)
chain: LQCFCHLCTKDNFTCVTDGLCFVSVTETTDKVIHNSMCIAEIDLIPRDRPFVCAPSSKTGSVTTTYCCNQDHCNKIELPTTVKSSPGLGPVELAAVIAGPVCFVCISLMLMVYICHNRTVIHHRVPNEEDPSLDRPFISEGTTLKDLIYDMTTSGSGSGLPLLVQRTIARTIVLQESIGKGRFGEVWRGKWRGEEVAVKIFSSREERSWFREAEIYQTVMLRHENILGFIAADNKDNGTWTQLWLVSDYHEHGSLFDYLNRYTVTVEGMIKLALSTASGLAHLHMEIVGTQGKPAIAHRDLKSKNILVKKNGTCCIADLGLAVRHDSATDTIDIAPNHRVGTKRYMAPEVLDDSINMKHFESFKRADIYAMGLVFWEIARRCSIGGIHEDYQLPYYDLVPSDPSVEEMRKVVCEQKLRPNIPNRWQSCEALRVMAKIMRECWYANGAARLTALRIKKTLSQLSQQEGIKM
With B9, the binding entry in assay [7] is reported as “binds”.

B10: Flag-ALK7 (receptor, UniProt Q8NER5 21-493)
chain: ELSPGLKCVCLLCDSSNFTCQTEGACWASVMLTNGKEQVIKSCVSLPELNAQVFCHSSNNVTKTECCFTDFCNNITLHLPTASPNAPKLGPMELAIIITVPVCLLSIAAMLTVWACQGRQCSYRKKKRPNVEEPLSECNLVNAGKTLKDLIYDVTASGSGSGLPLLVQRTIARTIVLQEIVGKGRFGEVWHGRWCGEDVAVKIFSSRDERSWFREAEIYQTVMLRHENILGFIAADNKDNGTWTQLWLVSEYHEQGSLYDYLNRNIVTVAGMIKLALSIASGLAHLHMEIVGTQGKPAIAHRDIKSKNILVKKCETCAIADLGLAVKHDSILNTIDIPQNPKVGTKRYMAPEMLDDTMNVNIFESFKRADIYSVGLVYWEIARRCSVGGIVEEYQLPYYDMVPSDPSIEEMRKVVCDQKFRPSIPNQWQSCEALRVMGRIMRECWYANGAARLTALRIKKTISQLCVKEDCKA
B10: in assay [1], the binding result is given as “no binding”.
